From paper PMC4663108 (Journal of molecular biology, 2015)

B1: Hsp90Ec K354C (natural protein)
chain: not shown
B2: […]Ec D366C (natural protein)
chain: not shown
B3: […]Ec K354C (natural protein)
chain: not shown
B4: […]Ec Q358C (natural protein)
chain: not shown
B5: […]Ec R267C (natural protein)
chain: not shown
B6: Hsp90Ec E269C (natural protein)
chain: not shown
B7: Hsp90Ec G270A/K271A (natural protein)
chain: not shown
B8: Hsp90Ec R355C (natural protein)
chain: not shown
B9: Hsp90Ec R355L (natural protein)
chain: not shown
B10: Hsp90Ec R267C (natural protein)
chain: not shown

Each binder was assayed against DnaK D45C-biotin (E. coli, UniProt P0A6Y8, D45C, biotin (labeled with a 20-fold excess of Maleimide-PEG11-Biotin)) (assay: pull-down).

Row | Binder | binding result
1 | B1 | binds

These binders were tested against T25-DnaK (E. coli, UniProt P0A6Y8) (assay: two-hybrid).

Row | Binder | β-galactosidase level relative to wild type
2 | B2 | ~80 % of wild type
3 | B3 | ~80 % of wild type
4 | B4 | ~80 % of wild type
5 | B5 | ~80 % of wild type

Each binder was assayed against T1, DnaK wild type (E. coli, UniProt P0A6Y8, labeled with 3H (740 cpm/pmol) in the ultrafiltration assay) (assay: ultrafiltration assay).

Row | Binder | Kd [nM]
6 | B6 | 850
7 | B7 | 1530
8 | B8 | 1490
9 | B9 | 1790

These binders were tested against T1, DnaK wild type (assay: cell-based or functional assay).

Row | Binder | rate of reactivation of heat-denatured luciferase with DnaK, CbpA and GrpE
10 | B6 | ~50 % of wild type
11 | B1 | ~50 % of wild type
12 | B10 | ~50 % of wild type
